Source: the supplement of paper PMC11417369
± gives the standard deviation of the averaged measurements. Some of the results follow.

Each sequence was assayed on PfAP2-I AP2 domain 3 (GST-tagged) (assay: gcPBM binding intensity (ln(normalized median fluorescence intensity)); higher = stronger DNA binding).
Summary of the method: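 The highest Masliner-normalised natural-log median intensity across replicate spots of either probe orientation is reported as binding intensity. GST-tagged P. falciparum DNA-binding domains expressed in E. coli were applied for 1 h to an Agilent 4 × 180k array of primer-extended double-stranded 36-bp intergenic genomic probes plus negative controls, and bound protein was detected with Alexa488 anti-GST antibody and scanned at 488 nm.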
With “AAAGTATAATAATACACACACTTTAAAAGTTAAATG [CACACA_site7550]” the “gcPBM binding intensity (ln)” value was 7.71 ± 0.6. With “AAAAGATGCGCATACACACAGATGAATAACAAAAAA [CACACA_site6865]” the “gcPBM binding intensity (ln)” value was 7.95 ± 0.89. For “GCACATTTTTTTATCACACATATAATTACAATATAA [CACACA_site5585]”, the “gcPBM binding intensity (ln)” value was 8.38 ± 0.47. With “TACGTATGCCTGTGATGTACATATATATATACATAC [XGTACX_site4728]” the “gcPBM binding intensity (ln)” value was 7.95 ± 0.54. In the case of “TTTCGGTTTTTTTTTATTTTTTTTTTTTTATTATTT [CACACA_negctrl_site335]”, the “gcPBM binding intensity (ln)” value is reported as 7.51 ± 0.59. In the case of “GGACATTTTTATAAGGTGCACGGTTTTGATATTACT [GTGCAC_site9892]”, the “gcPBM binding intensity (ln)” value is reported as 10.4 ± 0.18. In the case of “ATAATGATATATAGTACACACAAAAATGGAAGTAAA [CACACA_site7541]”, the “gcPBM binding intensity (ln)” value is reported as 7.97 ± 0.57. With “AACCACATACATATAACACACATATACAATATATAT [CACACA_site8607]” the “gcPBM binding intensity (ln)” value was 8.3 ± 0.33. For “TGACTATGTATATTTAGTACATAAAATCAATAATAT [XGTACX_site4082]”, the “gcPBM binding intensity (ln)” value was 7.81 ± 0.48. With “AAGGGTTGCCTGTGTAGTACATATATATATATATAT [XGTACX_site8555]” the “gcPBM binding intensity (ln)” value was 9.5 ± 0.65. “AAATATAAGAAAAAGGTGCTTTTTTTTTTTTTTTTT [GTGCAC_site9700]” was tested, and the “gcPBM binding intensity (ln)” value was 9.79. With AGGGAAAAAAAAAAAGTGCATTTGTATTAAATGAAT the “gcPBM binding intensity (ln)” value was 9.9 ± 0.028. “GTAAACAAAATATTTTGTACATATTTTATATTATTT [XGTACX_site7837]” was tested, and the “gcPBM binding intensity (ln)” value was 7.65 ± 0.58. For “TCATTCATAAAAATAACACACAAAAAAAAAAAAAAA [CACACA_site1800]”, the “gcPBM binding intensity (ln)” value was 8 ± 0.66. With “AAATTATATTATTGAACACACGTTTGGTAATGTTTT [CACACA_site5469]” the “gcPBM binding intensity (ln)” value was 7.57 ± 0.65. “TTTTTTTTTTTAAAAAGTACACAATTAATTAATATA [XGTACX_site8494]” was tested, and the “gcPBM binding intensity (ln)” value was 7.97 ± 0.42. “ATATTGTTTTATATAGAACACACATAAAAATATATA [CACACA_site8314]” was tested, and the “gcPBM binding intensity (ln)” value was 7.75 ± 0.28. With “GGCATAAATATATGCACACACAAAAAAAAAAAAAAA [CACACA_site59]” the “gcPBM binding intensity (ln)” value was 9.54 ± 0.38. In the case of “GAAAGAATAAAATTTACACACATATATATATACATA [CACACA_site2250]”, the “gcPBM binding intensity (ln)” value is reported as 7.61 ± 0.44. With “ATATATATATATATATGTACTTATTTGAATACTAAA [XGTACX_site2330]” the “gcPBM binding intensity (ln)” value was 9.24 ± 0.59. For “AAAATAAGAAATAGATGTACTTATAAATAAATACAA [XGTACX_site4441]”, the “gcPBM binding intensity (ln)” value was 7.5 ± 0.28. In the case of “TTATTGAAAAAAGAACAAAAAAAAAAAGAAAAATTA [XGTACX_negctrl_site438]”, the “gcPBM binding intensity (ln)” value is reported as 7.2 ± 0.55. “TATAAACATTATAAATGTACAAATATATATATATAT [XGTACX_site3218]” was tested, and the “gcPBM binding intensity (ln)” value was 9.09 ± 0.4. With “TCATTATATCATGGTAGTACTCATTAATAATACGTA [XGTACX_site8701]” the “gcPBM binding intensity (ln)” value was 7.93 ± 0.35. In the case of “GTTAATAAAAATATATGTACATAATTATTATGAAAA [XGTACX_site3030]”, the “gcPBM binding intensity (ln)” value is reported as 7.91 ± 0.43.
